Results reported in PubChem BioAssay AID1345083 (National Center for Advancing Translational Sciences (NCATS), 2018).
Several values for one entry are separate records, joined by “and”; a condition that tells them apart may be missing. Identical values can stand only once. The whole screen tested about 94,000 compounds, of which about 6,200 (6.6%) were called active. Inconclusive results, whose numbers are uncertain, are shown with a selection of clear calls. Calls come from the whole dose curve; as a rule, active = well fitted inhibition curve with a large enough effect; inconclusive = small, poorly fitted or top-dose-only effect; inactive = flat fitted curve, though single readings scatter. A potency beside an inconclusive call is a rough fit, not a confirmed value.

Experiment: Cytotoxic Profiling in HEK 293 Cell Line of Diverse Libraries Using Quantitative High-Throughput Screening; note: nearly all actives have a fitted effect of over 60% in size
Settings: HEK 293 viability, ATP luminescence (CellTiter-Glo), 48-72 h; activity change, negative = cytotoxicity: at 115 µM (top of the series) unless noted; series mostly up to 115 µM
Procedure, shortened: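 HEK 293 seeded at 250 cells/well receive compound via pintool. After 48 or 72 hr at 37 degree Celsius, 5% CO2 and 95% humidity, CellTiter-Glo is dispensed and luminescence read following 10 min at room temperature.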
% is set by controls: 0 for no effect and ±100 for the full control effect; potency is the fitted concentration of half-maximal effect; tags give direction and shape of the fitted curve.

SMILES	activity change, negative = cytotoxicity	Potency	outcome
COc1ccc(-c2cc(N3CCN(C(=O)Cc4ccc(F)cc4)CC3)n[nH]2)cc1	inactive: 2.02%	–	–
COc1ccc(OC)c(CN2CC(Oc3ccccc3C(=O)NCc3ccccc3)C2)c1	–	active: 31.6 µM	–
O=C(c1ccccc1C(F)(F)F)N1CCc2nc3cc[nH]n3c(=O)c2C1	–	inconclusive: 100 µM [inhibitor, single point]	–
O=C(c1ccoc1)N1CCC2(CC1)CC(N(Cc1ccc(F)cc1)C1CC1)CCO2 (configuration not stated)	–	inconclusive: 50.1 µM [inhibitor, partial curve, poor fit]	–
CSCCC(=O)N1CCCC1C(=O)Nc1ccccc1Oc1cccnc1 (configuration not stated)	inactive: -6.84%	–	–
COc1ccccc1-c1cccc(CN2CCCC(C(=O)NCc3cccc(C(F)(F)F)c3)C2)c1 (configuration not stated)	–	active: 14.1 µM	–
COC[C@@]12CN(C(=O)c3ccccc3)C[C@@H]1C(C)(C)COc1ccc(OC)cc12	–	inconclusive: 89.1 µM [inhibitor, single point]	–
Cc1cn2nc(C(=O)Nc3ccccc3)cc2c(N(C)Cc2ccccc2)n1	–	inconclusive: 44.7 µM [inhibitor, partial curve]	–
CN(C)CCN(C)C(=O)c1ccc(-c2ncc3cnc(-c4cccc(F)c4)cn23)cc1	–	active: 50.1 µM	–
COCCNC(=O)C1COC2(CCN(C(=O)c3ccc(OC)cc3)CC2)N1C(=O)c1cccc(C)c1 (configuration not stated)	inactive: -2.62%	–	–
O=C(C1CCC1)N1CCN(C2CCN(Cc3cccnc3)C2=O)CC1 (configuration not stated)	–	inconclusive: 79.4 µM [inhibitor, partial curve, poor fit]	–
Fc1ccccc1CCC1CCCN(c2nnnn2-c2ccccc2)C1 (configuration not stated)	–	inconclusive: 50.1 µM [inhibitor, partial curve, poor fit]	–
O=C(Cn1c2c(c(=O)n1Cc1ccccc1)CCN(Cc1ccccc1)C2)NCc1cccc(F)c1	–	inconclusive: 89.1 µM [inhibitor, single point]	–
CC(C)C(=O)N1CCCC1C(=O)N1CCC(c2nc3ncccc3[nH]2)CC1 (configuration not stated)	inactive: -0.938%	–	–
COc1ccc(-n2nc3n(c2=O)CCN([S+](=O)([O-])c2cccs2)C3)cc1	–	inconclusive: 22.4 µM [inhibitor, full curve, poor fit]	–
CN(C)c1ccc(C(=O)N2CCC3(CC2)NC(=O)N(c2ccccc2)N3)cc1	–	inconclusive: 35.5 µM [inhibitor, full curve, poor fit]	–
CC(=O)Nc1cccc(C(=O)NCc2nnc3ccc(-c4ccc(Cl)cc4)nn23)c1	–	inconclusive: 31.6 µM [inhibitor, partial curve, poor fit]	–
COCc1cc(C[C@@H]2CC[C@H](O)[C@@H](CNCc3ccccc3OC)O2)no1	inactive: -15.5% [at 172 µM]	–	–
CCCn1c(C)cnc1CC1CCCN(C(=O)Cc2cccc(F)c2)C1 (configuration not stated)	inactive: -26.3%	–	–
C[S+](=O)([O-])CCn1ncc2cc(OCC3CCN(C(=O)OC4CCCC4)CC3)ccc21	–	inconclusive: 56.2 µM [inhibitor, partial curve, poor fit]	–
O=C(c1ccc(C(F)(F)F)cc1)N1CCn2c(nn(-c3ccc(C(F)(F)F)cc3)c2=O)C1	–	inconclusive: 56.2 µM [inhibitor, partial curve, poor fit]	–

SMILES	activity change, negative = cytotoxicity	Potency	outcome
c1ccc(NCCN2CCCC2)cc1	–	–	inactive [at 230 µM]
Cc1ccc(C(=O)NC2CCN(c3nccc(Nc4ccccc4F)n3)CC2)cc1	–	active: 22.4 µM	–
CCNc1cc(N2CCC(CCC(=O)N(CC)CC)CC2)ncn1	–	inconclusive: 89.1 µM [inhibitor, partial curve, poor fit]	–
CC(C)c1nc2c(c(-c3ccc(O)cc3)n1)CCN(Cc1ccc(F)cc1)CC2	–	inconclusive: 70.8 µM [inhibitor, partial curve]	–
O=C(NCCc1ccc(Cl)cc1)C1CN(c2cccc(Cl)c2)C(=O)N1 (configuration not stated)	–	inactive and inconclusive: 79.4 µM [inhibitor, partial curve, poor fit]	–
O=C(c1cn2cc(-c3ccccc3Cl)n(CC3CC3)c(=O)c2n1)N1CC[C@@H](O)C1	–	inconclusive: 89.1 µM [inhibitor, single point]	–
Cn1nc(CN2CCN(c3ccncc3)CC2)c2c(Cl)cccc21	–	inconclusive: 89.1 µM [inhibitor, single point]	–
O=C(CCc1nc2ccccc2s1)N1CCN(C(=O)c2ccco2)CC1	inactive: -9.93%	–	–
O=C(NC1CCCCC1)N[C@H]1CO[C@H]2[C@@H]1OC[C@@H]2n1nnnc1Oc1ccc(-n2ccnc2)cc1	–	inconclusive: 89.1 µM [inhibitor, single point]	–
Cc1cc(C)n(CC(=O)N2CCN3CCS(=O)(=O)N(C4CC4)C(=O)C3C2)n1 (configuration not stated)	inactive: -19.4%	–	–
COCC1CN(Cc2ccc(Cl)cc2)CC12CCNCC2 (configuration not stated)	–	inconclusive: 100 µM [inhibitor, single point]	–
O=C(c1ccco1)N1CC(F)(F)C[C@H]1c1nc(-c2ccncc2)no1	–	–	inactive
CC(c1ccccc1)N1Cc2cc(NC(=O)Cc3cccs3)ccc2OCC1=O (configuration not stated)	–	inconclusive: 39.8 µM [inhibitor, partial curve]	–
O=C(c1cc(F)ccc1F)N1CCC2(CC1)N(c1ccccc1)C(=O)CS2(=O)=O	–	–	inactive
Cc1cccc(-c2noc([C@@H]3Cc4nc[nH]c4CN3C(=O)COCC(=O)O)n2)c1	inactive: -7.63% [at 172 µM]	–	–
Cc1c(-c2ccccc2F)[nH]c2ccc(CNC(=O)CCN3CCCC3=O)cc12	–	inconclusive: 79.4 µM [inhibitor, single point]	–
O=C(c1cc2ccccc2[nH]1)N1CCN2CCS(=O)(=O)N(C3CC3)C(=O)C2C1 (configuration not stated)	–	inconclusive: 70.8 µM [inhibitor, single point]	–
COc1cccc(C(=O)N2CCC3(CC2)SCC(=O)N3c2ccc(F)cc2)c1	inactive: -4.96%	–	–
O=C(NCCc1ccccc1)c1ccc2nnc(-c3cccc(C(F)(F)F)c3)n2c1	–	inconclusive: 50.1 µM [inhibitor, partial curve, poor fit]	–
CCc1ccc(C(=O)NC2CCN(c3cnn(CC4CC4)c(=O)c3)CC2)cc1	–	inconclusive: 44.7 µM [inhibitor, partial curve, poor fit]	–
FC(F)(F)Oc1ccc(CNC2(Cc3cc(CN4CCOCC4)on3)COC2)cc1	–	inconclusive: 126 µM [inhibitor, single point]	–
